The values that follow come from the supplement of paper PMC11417369.

This is one part of the list.

For this assay, the system named is PfHDP1 homeodomain (GST-tagged). The experiment in a line: gcPBM binding intensity (ln(normalized median fluorescence intensity)); higher = stronger DNA binding. Summed up: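 Plasmodium falciparum DNA-binding domains carrying a GST tag were expressed in E. coli and applied for 1 h, at about 25 μg on average, to an Agilent 4 × 180k array. The array held primer-extended double-stranded 36-bp intergenic genomic probes together with negative controls, and binding took place in 1× PBS with 1% milk, 0.2 mg/ml BSA, 0.5% salmon testes DNA and 0.03% Triton X-100. An Alexa488 anti-GST antibody detected bound protein, and the array was scanned at 488 nm. Binding intensity is taken as the highest Masliner-normalised natural-log median intensity across replicate spots of either probe orientation.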
“ATGGATTATTTTTAAACATGCAGTAGTGATGAAAAA [TGCATGCA_site346]”: the “gcPBM binding intensity (ln)” value is 6.42.

Turning to “AAAAAAAACATACATACACACACATAAATATATATA [CACACA_site8864]”, the “gcPBM binding intensity (ln)” value amounted to 7.17.

With “GTTCTTTCAAATTATACACACCAAAAAAAAAAAAAA [CACACA_site5660]”, the “gcPBM binding intensity (ln)” value was 6.62.

For “TGATCAAGTAAGAAAAGTACAAAAAAAGTAAAAAAT [XGTACX_site6529]”, the “gcPBM binding intensity (ln)” value worked out at 6.68.

Regarding “GATATGTTTTATTATGTTGATGATAACAGGTAGTTT [CACACA_negctrl_site356]”, the “gcPBM binding intensity (ln)” value came out at 6.48.

As to ATAAGTTTTTATTTTCTGCACTGTCGAATAATAGTT, the “gcPBM binding intensity (ln)” value turned out to be 6.88.

For the sequence GCGTGTGTACAATGAGTGCATATCTAAAGGGAAGAT, the “gcPBM binding intensity (ln)” value was found to be 9.43.

In the case of “CGGCACATTCTATATACACACATATAAATATATACA [CACACA_site566]”, the “gcPBM binding intensity (ln)” value came to 6.97.

In the case of “TACAATTCGTAATACACACACATATAAATAAATATT [CACACA_site7720]”, the “gcPBM binding intensity (ln)” value came to 6.82.

Turning to “TGCGGAAATAAGTGCACACATAGATATATGTATTTT [CACACA_site3689]”, the “gcPBM binding intensity (ln)” value stood at 9.48.

As to “ATATATATTAATAATGCATGTGATATAAATTAATAT [TGCATGCA_site930]”, the “gcPBM binding intensity (ln)” value is 6.75.

For the sequence “ATATTATATATGTATAGTACATATTATAAGAAAAAT [XGTACX_site3457]”, the “gcPBM binding intensity (ln)” value came out at 6.45.

Take “ATCTATATCTATAATACACACATCATAAAATATGTA [CACACA_site7230]”: the “gcPBM binding intensity (ln)” value was 6.7.

Regarding “TATTAAATATATATTACATGCAAAAAAAAAAAACAA [TGCATGCA_site705]”, the “gcPBM binding intensity (ln)” value came out at 6.89.

AATATACAAATAAAGGTGCGAGATATTTTTACTTTT: the “gcPBM binding intensity (ln)” value is 6.56.

Turning to “ACAATATGCAAAAAGTGTACACATTCATTTATATAA [XGTACX_site1061]”, the “gcPBM binding intensity (ln)” value was found to be 8.53.

Regarding “ATAAAAAAAGATGAACGTACATATATTTTAAAAATC [XGTACX_site5950]”, the “gcPBM binding intensity (ln)” value amounted to 6.45.

In the case of GTAAATATTTGTTGGGTGCTATCAATTATTTCAAAG, the “gcPBM binding intensity (ln)” value was 6.29.

In the case of “ATATAAAATATGTATGAGGAATAAAATTAAAAAAAA [XGTACX_negctrl_site173]”, the “gcPBM binding intensity (ln)” value is 6.34.

In the case of “TTTTTTTTGAAGAATACATGCATATTTTCTATATTC [TGCATGCA_site43]”, the “gcPBM binding intensity (ln)” value worked out at 6.36.

As to “TATATAAACATCGGTAGTACACACATTCATGTATTT [XGTACX_site6443]”, the “gcPBM binding intensity (ln)” value was 6.51.

As to “GGATCATTTTTAAAGGAACACACAAAAAAAATTATA [CACACA_site8381]”, the “gcPBM binding intensity (ln)” value stood at 6.61.

For the sequence “ATTTTATATATGTGTTGTACGGTGAACATTTTGATA [XGTACX_site6538]”, the “gcPBM binding intensity (ln)” value stood at 6.71.

As for “ATATGTATAAATATAAATATATATATATATATATAT [CACACA_negctrl_site705]”, the “gcPBM binding intensity (ln)” value was determined as 9.29.

In the case of “ACGTTAATATCTACAAGTACCCACATTAACAGGAAA [XGTACX_site2616]”, the “gcPBM binding intensity (ln)” value was determined as 6.57.

On to “ATGATATGGATAAATACACACAATATAATAATGGGT [CACACA_site4905]”, for which the “gcPBM binding intensity (ln)” value came out at 6.53.

On to “ATATCTTATATTATCACACACACACCCACAAAACAG [CACACA_site1464]”, for which the “gcPBM binding intensity (ln)” value is 7.73.

Regarding “AAAAAAAACAGACACACACACATTCAATATAAAACA [CACACA_site41]”, the “gcPBM binding intensity (ln)” value came out at 6.66.

“TAATTTGTTATTTATTGTACAAACATTATATGTTAA [XGTACX_site6637]”: the “gcPBM binding intensity (ln)” value came to 6.29.

Turning to “ATAACTAATATGAAATGTACCCATCAAAGTGTGCAT [XGTACX_site4463]”, the “gcPBM binding intensity (ln)” value worked out at 6.95.

On to “TACTACACACATTCATGTACTTGATAAATTAATGAT [XGTACX_site6444]”, for which the “gcPBM binding intensity (ln)” value was determined as 6.43.

Consider “AAAATTAAAATACGTACACACCTTATCTTTTTGGCT [CACACA_site4311]”, for which the “gcPBM binding intensity (ln)” value came out at 6.24.

“AGAACAATTCTGTGGTGTACCAAAAAAAATTTAATT [XGTACX_site8082]”: the “gcPBM binding intensity (ln)” value was 6.45.

As to “ATATTTAAATTTTGCACACGCATATGAAATTAGGAC [CACACA_site1035]”, the “gcPBM binding intensity (ln)” value turned out to be 10.5.

Regarding “AAAATAAATAAATATACACACCATATTTATATTTTT [CACACA_site7361]”, the “gcPBM binding intensity (ln)” value was determined as 6.44.

Turning to “TAAATGAATTTTACTATACACACGTATACATTTGTA [CACACA_site1210]”, the “gcPBM binding intensity (ln)” value was determined as 6.42.

In the case of “ATATATAATTATTGAAGTACTTGTTCATAAAATGGT [XGTACX_site5656]”, the “gcPBM binding intensity (ln)” value was 6.53.

For the sequence “AAAATAAAATGAAAACGTACATGATAAATTTTAATT [XGTACX_site4199]”, the “gcPBM binding intensity (ln)” value came out at 6.46.

As for “TATATGAGCATAAAGACACACAAATAAAACCAAACA [CACACA_site3856]”, the “gcPBM binding intensity (ln)” value stood at 8.25.

For “ATATTATAAATATAATGTACGTTTTAATTTCATGTT [XGTACX_site3557]”, the “gcPBM binding intensity (ln)” value worked out at 6.24.

With “GTGTTAAATTTTTGAACATGCAAGTTTTATTATTGA [TGCATGCA_site478]”, the “gcPBM binding intensity (ln)” value came to 6.19.

In the case of “AATGCAAAGGTGAAAGAACACACAAAAAAAAAAAAA [CACACA_site9333]”, the “gcPBM binding intensity (ln)” value turned out to be 6.27.

Take “CATAGACACGAACATACACACGGACATACATACGGA [CACACA_site8101]”: the “gcPBM binding intensity (ln)” value amounted to 6.62.

As to “GTAACAAATTAATAGTGTACATATTTTAAAAAAATA [XGTACX_site7150]”, the “gcPBM binding intensity (ln)” value came out at 6.42.

Turning to CACATAAAAATTGTGTTGCACTTTTATTCTTATATC, the “gcPBM binding intensity (ln)” value came to 7.27.

“CTATGAATAGGAAAAAGTACTAAACCTTTATATATA [XGTACX_site5022]”: the “gcPBM binding intensity (ln)” value worked out at 6.28.

Consider “ATTTTGCCTGACCCATGTACATATTATTTTTTGCAT [XGTACX_site2258]”, for which the “gcPBM binding intensity (ln)” value came out at 7.57.

“AACTTACTTGGACATACACACATATATATATATATA [CACACA_site2978]”: the “gcPBM binding intensity (ln)” value came to 9.41.

Regarding “TTTATATATTTTAGGTGTACATAAATTTTTATATAT [XGTACX_site5597]”, the “gcPBM binding intensity (ln)” value is 6.32.

Regarding “TAACTTAATATTAATGCACACAATTTATATATATAT [CACACA_site3903]”, the “gcPBM binding intensity (ln)” value is 10.4.

As to “TCAAATATTCATAAATGTACATTTATTTTTCTCCTT [XGTACX_site5827]”, the “gcPBM binding intensity (ln)” value was 6.49.

For “AGTAGAATATCCCCTACACACCCAAATAATTTACAA [CACACA_site8339]”, the “gcPBM binding intensity (ln)” value is 7.27.

On to “GAAACATACATTTTTTGTCCGTAAGTATTATAATAA [XGTACX_site3273]”, for which the “gcPBM binding intensity (ln)” value worked out at 6.38.

As to “ATACATCAAGGACACACACACACACCCACACCCACA [CACACA_site8013]”, the “gcPBM binding intensity (ln)” value was determined as 6.71.

On to “CTATATAAAAAAATTGCACACATAAATATATACATA [CACACA_site8325]”, for which the “gcPBM binding intensity (ln)” value came out at 9.87.

As to “ATAAATCCCAAAACCTTGCAAGACAACGTTTGATCA [CACACA_negctrl_site1327]”, the “gcPBM binding intensity (ln)” value was found to be 6.57.

“TGTAGAAGAACCCATGCATGCAGTATGAAAAAAAAA [TGCATGCA_site907]”: the “gcPBM binding intensity (ln)” value came to 6.73.

Regarding “AAAAAAAGAAAAAAACGTACATGAAAATTTTTTGTT [XGTACX_site5135]”, the “gcPBM binding intensity (ln)” value was 6.88.
